# Test results taken from PubChem BioAssay AID624296 (National Center for Advancing Translational Sciences (NCATS), 2012).
# Hit rate of the full screen: of about 350,000 compounds, about 9,900 (2.8%) were called active. This list was built around the results that the source calls inconclusive (neither active nor inactive); the mix of calls is not that of the screen. The call rests on the fitted dose curve; in most records, active means well fitted activation curve with a large enough effect; inconclusive means small, poorly fitted or top-dose-only effect; inactive means no such curve, though single readings can be large or run the other way. No potency is given beside an inconclusive call; the fits are too rough.
# Assay: A quantitative high throughput screen for small molecules that induce DNA re-replication in MCF 10a normal breast cells. Further: nearly all actives have a fitted effect of over 50% in size.
# Conditions: MCF 10A DNA re-replication, Hoechst nuclear intensity, 48 h; series mostly up to 46.1 µM
# Potency means the concentration at half of the fitted maximal effect; tags describe the fitted curve by direction and shape.
row,SMILES,Potency
1,CCCC1=[N+](CC(=O)c2ccc(Br)cc2)CCn2cccc21,"inconclusive [activator, single point]"
2,CC(C)(C)C1=NN(c2ccc([N+](=O)[O-])cc2)C(c2ccccc2)C1 (configuration not stated),inactive
3,Cc1ccccc1OCC(=O)N/N=C/c1cc2ccccc2nc1Cl,"inconclusive [activator, partial curve, poor fit]"
4,COc1ccc(C2C3=C(CCCC3=O)N(CC(=O)O)C3=C2C(=O)CCC3)cc1Cl,active: 20.6 µM
5,COc1nc(-c2ccccc2)ccc1-c1noc(C)n1,active: 13 µM
6,O=C(COc1ccc(Cl)cc1)N1CCN(S(=O)(=O)c2ccccc2)CC1,inactive
7,Cc1cc(N)n2nc(-c3ccccc3)c(-c3ccccc3)c2n1,"inconclusive [activator, single point]"
8,N/C(=N\S(=O)(=O)c1cc(C(F)(F)F)cc(C(F)(F)F)c1)c1ccc(Cl)cc1,active: 13 µM
9,COc1ccc(Nc2ncc(C(=O)N3CCC(C(N)=O)CC3)c3ccccc23)cc1,inactive
10,CCOC(=O)/C(C(=O)Nc1ccc(Br)cc1)=C1/NC(C)(C)Cc2ccccc21,"inconclusive [activator, partial curve, poor fit]"
11,CC(C)(CNC(=O)CO/N=C1/C=C2CCC3C(C(O)C[C@@]4(C)C3CC[C@]4(O)C(=O)CO)[C@@]2(C)CC1)C(O)C(=O)O (some centres not stated),"inconclusive [activator, single point]"
12,O=C(CCCCCn1c(SCc2ccncc2)nc2ccccc2c1=O)NCc1ccco1,"inconclusive [activator, single point]"
13,Cc1ccnc(NC(=O)CC(c2ccccc2)c2ccccc2)n1,"inconclusive [activator, single point]"
14,COc1cc(/C=C2\C(=O)N(C)C(=S)N2C)ccc1O,"inconclusive [activator, single point]"
15,Oc1ccc(-c2nccc(-c3ccc(F)cc3)n2)cc1,inactive
16,COc1cccc(/C=C/C(=O)NNC(=O)CCN2CCN(Cc3ccccc3)CC2)c1,"inconclusive [activator, single point]"
17,CC(=O)C1=C(C)N(Cc2ccccc2)C(=O)N[C@H]1CCc1ccccc1,"inconclusive [activator, single point]"
18,CCOc1ccc(Br)cc1C(=O)N/N=C/c1ccccn1,inactive
19,CCN1C(=O)C(CC(=O)Nc2ccc(OC)cc2)N(CCCN2CCN(c3ccc(OC)cc3)CC2)C1=S (configuration not stated),"inconclusive [activator, single point]"
20,O=c1oc2ccccc2cc1-c1csc(Nc2nc3c(F)cccc3s2)n1,active: 5.8 µM
21,CC(C)Cc1nnc(NC(=O)C2CC(=O)N(c3ccc4c(c3)OCCO4)C2)s1 (configuration not stated),"inconclusive [activator, partial curve, poor fit]"
22,O=C(c1ccc2c(c1)OCO2)C1CCCN(C2CCN(CCc3ccccc3)CC2)C1 (configuration not stated),"inconclusive [activator, single point]"
23,NC(Cc1ccc(O)c([N+](=O)[O-])c1)C(=O)O (configuration not stated),"inconclusive [activator, single point]"

row,SMILES,Potency
1,COc1ccc(NS(=O)(=O)c2cn(C)cn2)c(OC)c1,"inconclusive [activator, full curve, poor fit]"
2,COc1ccc(-c2noc(CCC(=O)N3CCC(c4cc(C)ccc4C)CC3)n2)cc1,"inconclusive [activator, single point]"
3,CCn1c(CC(=O)Nc2ccccc2C)nnc1SCC(=O)Nc1nncs1,inactive
4,Cc1ccc(-c2csc(N=C(N)N)n2)cc1,"inconclusive [activator, partial curve, poor fit]"
5,Cc1cc(-c2nn(-c3ccccc3F)cc2CN2CCC(C(N)=O)CC2)c(C)s1,"inconclusive [activator, partial curve, poor fit]"
6,Cc1nnc(N/N=C/c2c[nH]c3ccccc23)[nH]c1=O,inactive
7,CCc1nc(NCCO)c(C#N)c2c1CSC(C)(C)C2,"inconclusive [activator, single point]"
8,O=C(Nc1ccccc1Cl)/C(Cl)=C(\Cl)S(=O)c1ccccc1 (configuration not stated),"inconclusive [activator, full curve, poor fit]"
9,O=C(NC(=S)Nc1ccc(S(=O)(=O)N2CCCC2)cc1)C1CCC1,inactive
10,CC1(C)CC(=O)C2=C(C1)N(c1ccccc1)C(=O)C(C(=O)OCc1ccccc1)C2 (configuration not stated),"inconclusive [activator, full curve, poor fit]"
11,Cc1cc(C)cc(N(C(=O)CCC(=O)Nc2cc(C)on2)C(C(=O)NC2CCCC2)c2ccco2)c1 (configuration not stated),"inconclusive [activator, single point]"
12,COc1ccc(OC)c(CCNC(=O)c2sc3nc4n(c(=O)c3c2C)CCC4)c1,"inconclusive [activator, partial curve, poor fit]"
13,CSc1nsc(SC)c1C(=O)Nc1ccc(C(C)(C)C)cc1,"inconclusive [activator, partial curve]"
14,COc1ccc(OCC(=O)N/N=C(\C)CC(=O)Nc2ccc(NC(C)=O)cc2)cc1,"inconclusive [activator, single point]"
15,Cc1ccc(CNC(=O)CSc2c3c(nc4cc(Cl)ccc24)CCCC3)o1,"inconclusive [activator, single point]"
16,CCn1nc(C)c(/C=N/NC(=O)c2ccc3c(c2)c(C)c(C)n3Cc2ccccc2)c1C,"inconclusive [activator, partial curve, poor fit]"
17,Cc1cc(NC(=O)c2ccc(-c3ccc(F)c(Cl)c3)o2)no1,"inconclusive [activator, partial curve, poor fit]"
18,Cn1nnnc1SCCNCc1ccccc1OCc1ccc(F)cc1,inactive
19,N#C/C(=C(/O)CCCl)c1ccccn1,"inconclusive [activator, partial curve]"
20,Cc1ccc(Nc2nnc(-c3ccc(N4CCOCC4)c([N+](=O)[O-])c3)c3ccccc23)cc1,inactive
21,CCc1sc(C(=O)N2CCN(c3ccc(F)cc3)CC2)cc1C,"inconclusive [activator, partial curve, poor fit]"
22,Cc1csc(NC(=O)CCc2ccc(S(=O)(=O)N3CCOCC3)cc2)n1,"inconclusive [activator, single point]"
23,O=C(C1Cc2ccccc2CN1C(=O)c1ccco1)N1CCN(c2ccccc2)CC1 (configuration not stated),inactive

row,SMILES,Potency
1,O=C(CN1CCN(C(=O)c2cccc(S(=O)(=O)N3CCCC3)c2)CC1)Nc1cccc(F)c1,inactive
2,O=C1Cc2ccccc2Sc2c(OCCN3CCCCC3)cccc21,"inconclusive [activator, single point]"
3,CCOC(=O)CSc1nc2ccc(C)cc2cc1C#N,"inconclusive [activator, single point]"
4,CC(C)Sc1nnc(CNC(=O)C23CC4CC(CC(C4)C2)C3)n1Cc1ccccc1,"inconclusive [activator, partial curve, poor fit]"
5,COCc1ccc(CN2CCCCC2C(=O)Nc2ccc(Oc3ccccc3)nc2)o1 (configuration not stated),inactive
6,Cc1cccc(Nc2nnc(SCC(=O)NC3CCCc4ccccc43)s2)c1 (configuration not stated),"inconclusive [activator, single point]"
7,COc1cccc(N2CCN(C(=O)c3ccc(-c4ccccc4)cc3)CC2)c1,inactive
8,Cc1cccc(OCC(=O)Nc2ccc3oc(=O)ccc3c2)c1,inactive
9,CCCCCCOC(=O)C(C#N)c1nc2ccccc2nc1N1CCN(C)CC1 (configuration not stated),"inconclusive [activator, single point]"
10,CCOc1cc(CNCc2cc(OC)cc(OC)c2)ccc1OC,inactive
11,COc1ccc(C2=NOC(Cn3nc(-c4ccccc4C)cc3C(=O)O)C2)cc1 (configuration not stated),"inconclusive [activator, full curve, poor fit]"
12,COc1ccc(C(C)=O)cc1COC(=O)c1ccc(S(=O)(=O)N(C)C)cc1,inactive
13,O=C(NCCO)C(=O)c1c(-c2ccccc2)cc2ccccn12,inactive
14,Cc1ccccc1S(=O)(=O)N1[C@@H](c2ccc(Br)cc2)C(C(=O)O)=CC[C@H]1c1ccc(Cl)cc1,"inconclusive [activator, single point]"
15,CC1(C)CN=C(N(C(=O)Nc2ccccc2)c2ccccc2F)S1,"inconclusive [activator, partial curve, poor fit]"
16,O=C(Nc1cc(N2CCCCC2)ncn1)c1ccccc1,"inconclusive [activator, single point]"
17,Cc1[nH]n(-c2ccccc2)c(=O)c1/C=N/O,"inconclusive [activator, single point]"
18,O=C(CCN1CCOCC1)NNC(=S)NC(=O)c1ccccc1,"inconclusive [activator, single point]"
19,O=C(O)c1ccc(Cl)c(S(=O)(=O)N(Cc2ccccc2)c2ccc(Cl)cc2)c1,"inconclusive [activator, partial curve]"
20,Cc1ccc(C)c(NC(=S)NC(NC(=O)OCc2ccccc2)C(Cl)(Cl)Cl)c1 (configuration not stated),"inconclusive [activator, single point]"
21,O=C(NC1(Cc2ccccc2)CCN(Cc2ccc(-c3ccccc3)cc2)C1=O)c1ccccc1 (configuration not stated),"inconclusive [activator, single point]"
